From PMC9911399, “Two distinct binding modes provide the RNA-binding protein RbFox with extraordinary sequence specificity”
Changes are numbered by the printed parent chain; changes in the protein carry UniProt numbers. Some of the results follow.

T1: RBFOX1 RRM (Homo sapiens, UniProt Q9NWB1 109-208)
T1 sequence: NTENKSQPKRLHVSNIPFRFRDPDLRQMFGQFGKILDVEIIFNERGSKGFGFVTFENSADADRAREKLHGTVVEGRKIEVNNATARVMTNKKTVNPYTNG

B1: CGGUAUA (DNA:RNA)
RNA: GGGAGACCGGAAUUCAGAUUGUCCCGGUAUAUUAAAUCCCGUCGUAGCCACCA
DNA 1: CAATCTGAATTCCGGTCTCCC
DNA 2: TGGTGGCTACGACGGGATT
B2: UUGAACC (DNA:RNA)
RNA: B1 RNA with C25U, G26U, U28A, U30C, A31C
DNA 1: CAATCTGAATTCCGGTCTCCC
DNA 2: TGGTGGCTACGACGGGATT
B3: CCGUAAG (DNA:RNA)
RNA: B1 RNA with G26C, U30A, A31G
DNA 1: CAATCTGAATTCCGGTCTCCC
DNA 2: TGGTGGCTACGACGGGATT
B4: AAUCCAG (DNA:RNA)
RNA: GGGAGACCGGAAUUCAGAUUGUCCAAUCCAGUUAAAUCCCGUCGUAGCCACCA
DNA 1: CAATCTGAATTCCGGTCTCCC
DNA 2: TGGTGGCTACGACGGGATT
B5: AGUUCGG (DNA:RNA)
RNA: B4 RNA with A26G, C28U, A30G
DNA 1: CAATCTGAATTCCGGTCTCCC
DNA 2: TGGTGGCTACGACGGGATT
B6: UGGUAAU (DNA:RNA)
RNA: B1 RNA with C25U, U30A, A31U
DNA 1: CAATCTGAATTCCGGTCTCCC
DNA 2: TGGTGGCTACGACGGGATT
B7: CAAAAGC (DNA:RNA)
RNA: B1 RNA with G26A, G27A, U28A, U30G, A31C
DNA 1: CAATCTGAATTCCGGTCTCCC
DNA 2: TGGTGGCTACGACGGGATT
B8: GUCCUCU (DNA:RNA)
RNA: B4 RNA with A25G, A26U, U27C, C29U, A30C, G31U
DNA 1: CAATCTGAATTCCGGTCTCCC
DNA 2: TGGTGGCTACGACGGGATT
B9: CAUCAAG (DNA:RNA)
RNA: B4 RNA with A25C, C29A
DNA 1: CAATCTGAATTCCGGTCTCCC
DNA 2: TGGTGGCTACGACGGGATT
B10: UACGUGA (DNA:RNA)
RNA: B4 RNA with A25U, U27C, C28G, C29U, A30G, G31A
DNA 1: CAATCTGAATTCCGGTCTCCC
DNA 2: TGGTGGCTACGACGGGATT
B11: UAAAAGU (DNA:RNA)
RNA: B4 RNA with A25U, U27A, C28A, C29A, A30G, G31U
DNA 1: CAATCTGAATTCCGGTCTCCC
DNA 2: TGGTGGCTACGACGGGATT
B12: UACAGAA (DNA:RNA)
RNA: B4 RNA with A25U, U27C, C28A, C29G, G31A
DNA 1: CAATCTGAATTCCGGTCTCCC
DNA 2: TGGTGGCTACGACGGGATT
B13: UAUAGAG (DNA:RNA)
RNA: B4 RNA with A25U, C28A, C29G
DNA 1: CAATCTGAATTCCGGTCTCCC
DNA 2: TGGTGGCTACGACGGGATT
B14: UGUGUAC (DNA:RNA)
RNA: B4 RNA with A25U, A26G, C28G, C29U, G31C
DNA 1: CAATCTGAATTCCGGTCTCCC
DNA 2: TGGTGGCTACGACGGGATT
B15: UUCGAAU (DNA:RNA)
RNA: B4 RNA with A25U, A26U, U27C, C28G, C29A, G31U
DNA 1: CAATCTGAATTCCGGTCTCCC
DNA 2: TGGTGGCTACGACGGGATT
B16: UUGUAAC (DNA:RNA)
RNA: B1 RNA with C25U, G26U, U30A, A31C
DNA 1: CAATCTGAATTCCGGTCTCCC
DNA 2: TGGTGGCTACGACGGGATT
B17: AGUGUAU (DNA:RNA)
RNA: B4 RNA with A26G, C28G, C29U, G31U
DNA 1: CAATCTGAATTCCGGTCTCCC
DNA 2: TGGTGGCTACGACGGGATT
B18: GCUCGCA (DNA:RNA)
RNA: B4 RNA with A25G, A26C, C29G, A30C, G31A
DNA 1: CAATCTGAATTCCGGTCTCCC
DNA 2: TGGTGGCTACGACGGGATT
B19: CAAGCCC (DNA:RNA)
RNA: B4 RNA with A25C, U27A, C28G, A30C, G31C
DNA 1: CAATCTGAATTCCGGTCTCCC
DNA 2: TGGTGGCTACGACGGGATT
B20: CCGUGGU (DNA:RNA)
RNA: B1 RNA with G26C, A29G, U30G, A31U
DNA 1: CAATCTGAATTCCGGTCTCCC
DNA 2: TGGTGGCTACGACGGGATT
B21: GACGAUC (DNA:RNA)
RNA: B1 RNA with C25G, G26A, G27C, U28G, A31C
DNA 1: CAATCTGAATTCCGGTCTCCC
DNA 2: TGGTGGCTACGACGGGATT
B22: AUACUAU (DNA:RNA)
RNA: B4 RNA with A26U, U27A, C29U, G31U
DNA 1: CAATCTGAATTCCGGTCTCCC
DNA 2: TGGTGGCTACGACGGGATT
B23: AUUAUUG (DNA:RNA)
RNA: B4 RNA with A26U, C28A, C29U, A30U
DNA 1: CAATCTGAATTCCGGTCTCCC
DNA 2: TGGTGGCTACGACGGGATT
B24: ACUCGGU (DNA:RNA)
RNA: B4 RNA with A26C, C29G, A30G, G31U
DNA 1: CAATCTGAATTCCGGTCTCCC
DNA 2: TGGTGGCTACGACGGGATT
B25: UCAUACA (DNA:RNA)
RNA: B1 RNA with C25U, G26C, G27A, U30C
DNA 1: CAATCTGAATTCCGGTCTCCC
DNA 2: TGGTGGCTACGACGGGATT
B26: AUUAUCU (DNA:RNA)
RNA: B4 RNA with A26U, C28A, C29U, A30C, G31U
DNA 1: CAATCTGAATTCCGGTCTCCC
DNA 2: TGGTGGCTACGACGGGATT
B27: AUUAGCG (DNA:RNA)
RNA: B4 RNA with A26U, C28A, C29G, A30C
DNA 1: CAATCTGAATTCCGGTCTCCC
DNA 2: TGGTGGCTACGACGGGATT
B28: AGAUAUA (DNA:RNA)
RNA: B1 RNA with C25A, G27A
DNA 1: CAATCTGAATTCCGGTCTCCC
DNA 2: TGGTGGCTACGACGGGATT
B29: CUAUCUC (DNA:RNA)
RNA: B1 RNA with G26U, G27A, A29C, A31C
DNA 1: CAATCTGAATTCCGGTCTCCC
DNA 2: TGGTGGCTACGACGGGATT
B30: GGAGCUU (DNA:RNA)
RNA: B1 RNA with C25G, G27A, U28G, A29C, A31U
DNA 1: CAATCTGAATTCCGGTCTCCC
DNA 2: TGGTGGCTACGACGGGATT
B31: UCACCAA (DNA:RNA)
RNA: B4 RNA with A25U, A26C, U27A, G31A
DNA 1: CAATCTGAATTCCGGTCTCCC
DNA 2: TGGTGGCTACGACGGGATT

Target: T1, RBFOX1 RRM
Test: EMSA; HiTS-Eq, 1 nM pool, 10 min; buffer printed only for the single-RNA assays: 10 mM Tris pH 7.5, 150 mM NaCl, 3.4 mM EDTA, 0.001% NP-40, 30 C
Details: tags: His6 N-terminal (pET28a); label: 5' 32P
Method in brief: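 These values rest on relative association constants, computed from read-count changes of each RNA species versus the control reaction and normalised to the cognate motif. Reads came from free RNA recovered by 8% native PAGE after purified RbFox RRM (wild type or mutant) at increasing concentrations was equilibrated for 10 min in 50 µL with 1 nM of a 5′-radiolabelled pool with 7 randomized nucleotides and DNA-annealed flanks.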

Binder	binding signal
B1	0.00273 KA relative to UGCAUGU
B2	0.0107 KA relative to UGCAUGU
B3	0.00756 KA relative to UGCAUGU
B4	0.00117 KA relative to UGCAUGU
B5	0.0164 KA relative to UGCAUGU
B6	0.0117 KA relative to UGCAUGU
B7	0.00183 KA relative to UGCAUGU
B8	0.0115 KA relative to UGCAUGU
B9	0.00352 KA relative to UGCAUGU
B10	0.00812 KA relative to UGCAUGU
B11	0.00626 KA relative to UGCAUGU
B12	0.00686 KA relative to UGCAUGU
B13	0.0123 KA relative to UGCAUGU
B14	0.0133 KA relative to UGCAUGU
B15	0.0146 KA relative to UGCAUGU
B16	0.012 KA relative to UGCAUGU

Binder	binding signal
B17	0.00491 KA relative to UGCAUGU
B18	0.0158 KA relative to UGCAUGU
B19	0.00379 KA relative to UGCAUGU
B20	0.0142 KA relative to UGCAUGU
B21	0.0155 KA relative to UGCAUGU
B22	0.000717 KA relative to UGCAUGU
B23	0.00949 KA relative to UGCAUGU
B24	0.0113 KA relative to UGCAUGU
B25	0.00023 KA relative to UGCAUGU
B26	0.00435 KA relative to UGCAUGU
B27	0.00971 KA relative to UGCAUGU
B28	0.00218 KA relative to UGCAUGU
B29	0.0057 KA relative to UGCAUGU
B30	0.0232 KA relative to UGCAUGU
B31	0.00156 KA relative to UGCAUGU
